Laboratory results: the RNAGym collection of RNA variant scans (doi:10.1073/pnas.2313332121)
Variants at the floor of the assay are shown more often than the library holds them.

B1: TPR 5TU (parent)
chain: GGAUCUUCUCGAUCUAACAAAAAAGACAAAUCUGCCACAAAGCUUGAGAGCAUCUUCGGAUGCAGAGGCGGCAGCCUUCGGUGGCGCGAUAGCGCCAACGUUCUCAACUAUGACACGCAAAACGCGUGCUCCGUUGAAUGGAGUUUAUCAUG

Variants of: B1
Experiment: polymerase ribozyme fitness, log enrichment relative to wild type (log ratio); higher = more active; in vitro selection for triplet polymerase activity
Summary of the method: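 Fitness measures genotype enrichment against wild-type enrichment on a logarithmic scale, with inverse-variance-weighted averaging of replicates. The logarithm is base 2, and genotypes were kept only with ≥10 input reads and ≥1 read per output in Illumina sequencing. The sequenced libraries came from one triplicate in vitro selection round, including frozen incubation at −7 °C, of PCR-built, transcribed mutant libraries of each subunit of a heterodimeric triplet polymerase ribozyme.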

Polymerase ribozyme fitness (log ratio), ≤ -4.2:
A28C U33C G34C A89U C93U C99U
C27U A91C C96G
G25U A29G U61G G92C
A26G G50A U53A C57G G80A C85G
A26G U53C C87U
A24U A60U U77G G84U C85A C87G U127A G128C A138C
A28C A40C G67A G80U C96G G128A
C27A C85G G94U U102G
C27G C72G G88U C116G G117U A138U
C27A C32U C38U C63U A73G C79G C93G
A26C A49U C108A A121U G124U A137C U146G U148A
G25C C43G C95U
A24U G42C C87G C99A
A26G U53A C76G G81A
C27G A52G A91G A107G C129U G133U A150U
A26G C35A A64C U90A C95G
A24U G65C C93U U134C
A26U G100A C149A
A26U A89G C95U G126U C132G U145A
G25C A30G A52C U53A U77A G84U G86U C87A A121U G133U
A26C A41G U61A G70U G88C
C27U A28U A39C G80C G133U
A28C U55A G58A G92A
A28C G50U C85G C118A U145G
C27G G48C A66G
C27U A29U C76A C95U U109A A120U U146G
C27U G80C C93G U146C G152C
G25U G71A G80U C93U
A28C C32G G42C U53A U56G C57G C85U A115G
A26C A39G G59C G92A U145C U148A
G25C C27U U56G C63A A66C C95G A107C U127C
A26U G42A G83A C116U G136U
A28C G65U C76G C87A C108A
A24U C75G G84C C95U
A26G C43G A52C C54A C93U U144C
A28C U78C U102G
A24U G42U C54A C108U U139C
A26U G48C G84U U139C
C27A U45G G74C C87U U101A C116G
A26U A29U C72U A97C U111G
G25C U53A A89U A97U U146G
A24U C27A G46C C75G C79U C87G G141C
A26U C93A
A26U U45C G141C
C27A C36U C43U G46C G83U
A26U G46C C85A
A28C C72U G84C
A26C A29U C95U G140C
A26G C95U C96A G117A
A28C A37U G48U G50A G86U G126U
G25U A52G C69U C96U C108G
A24U G59A U61G G86U
C27A A40C G50C U56A G94A A98G
C27U G59A C93U G112U
A24U G74U C99U
G25U G70C C123A
A24U A52C G70U U101G
A26C C27U C85U G88U U139C A142G
A24U C76G G84C C131A C132A G141C
C27U U56G C85A C118G C129G U134C
G25C A28U G80C C87U A89G
C27G A40C G42C C93U G117C
A26C G62A G68U G80U U82A
A26G G70C C87G C103A
A28C G50U G92A C95A
C27U C32G A41C A97G U139A
C27U G84C G88A A97G C108G
A28C A52G A66U C69U C96A A107U
C27A A41C C87A G124C U139A
A28C C57U G58A A60C C87A
A26C C57G A89C C149U
A24U G68A C76G C93U A138C G152C
C27G C57A U61G
A26G C32A C36G G68A
A24U A91U C95G C131G
G25A C93G
A28C C57A G86C A110U G128U
A24U U33G A60G C75G G81A
A24U G84A C93G C103G C105G U135G C149G
C27G C85G A89C
A26C C36U C105U A137U
A26G G86U C95U A115G A121C
A26C A29G A91U G94A C105G G117U
A24U G25A C69U C95G C103G
A26C U44A A47C C54U A110C A147C
G25C A49C A60C C96U
G25U A30G A91U U109A A115G G124A
C27U A47C C51U G94C C95A U148C
C27A U104G
A24U G65U A91U C116A G141C
A28C C116A A138C
A24U A52C C54U G67C C87A C103U
A26C A47C G62A C93U G141A
A26G A28C G59C A64C G136U G143U
G25U G100C
C27G U56A C57G G84A A122U U151C
A26C U55G G88U U109G G112C A150G
G25C G59C G84A C87G A142U
G25U C85A C103G U104G U134A A147U
A26G G84A C85A C93A
C27G G86C G94A C105U C108A
A28C A49G A97U
C27A U55A C85U U101G A137G U139C
C27U A37U C54G U145G
C27G U55A C75G G84C
A26C C108U A120G G124U G136U U148A
G25C G80A G88C G94U G143U
A26G A30G G42C C51G U56A G68A G88A A91G C99G
A24U C75U C76U A91U U135G U146A
A28C C35G G62C C116G
C27G C57U G83A C103U A106G C108U
A26U G42A C51U A52G C93A G133C U134A
C27G U44A U56G G68U
G25U A40C C76G G86A C95A U144C
A26U C32G U82C C96U U109C A113C U145C
A26C G34C A98G C123G C125G A137G
A24U A107G C123U G140U U145G A150G
A28C U45A A64U A66C G81A C85G C114A
C27U A49U C72U A89G A150C
C27G C32G A37G C87U
A24U U77A A106G A122C G124U
A28C A30U U31A U53A G81A C87A A91U A98G
G25A C32U C85U U104G G136U
A26C G42A U53A C72A G80U G84C A98C U101A C103A U109G
C27G C79A G88U C93U U148A
A24U U45A G50A C116U A150G
C27U A30C U55G U82G G133C G141C U146A
C27A A37G G59C U77A C85A
A28G A41C C76G G81U C85A C123A G143C
A26U U53A C85A A115G G124C G141C U148G
A26U U102A
C27U C32U A49G G65U A113G G136U
A26G A39U C96G C105U A120U G152U
A26G U45G G50C G59C G68C C93G
G25U C43U A47C U55A U101C A120G
A26C C76U G84U U111G A147U
A26C A40U G68A C87G C99U
A26U C75G C85A C95A
C27U G34U U56G C85A A110G U135G
A26C A40G G74U U109C
A26C C35G G50C C96G G143U
C27G G50C C57U G58C C93U
C27A G34A C54U A107U
A26U G59C C75A G117U U144G
A26C C79G
A26C U44A G70U C85G
A24U A41U G59C G74C G84U G92C
A26C G59C C99U U102G C116U U135C
C27U A39C G70C C87A U101G G140C
A28C A29U A52G G83U C123A
C27G G50A C85U A97C U102G U146G G152A
C27U U33G A40C C96G U101A
C27A G34C U78G A91U A113G A150G
A26U C43A G84A C93U A98U U139A G141A C149U
A26G A40C G46U C72U G86U U101G
A28C G67C
G25U C57U G67A C93G G124A G136A
C27G A47G A52U C75G C76A U82C A107C G141U
A26C U77A C105A U144G
A26U U45A G88U G133U
C27U A30C A40C U53A G58A C85A A97U
A24U C125A C131A A147C
C27G U53G U55A C72U A73C G84U U139A U151G
A24U C35U G48U C85G A137C
G25C A49C G50C A91G C96U
A24U A41G U44A C54A U61G U77G G140C
G25U A41U A49C G68U A150G
